In PubChem BioAssay (Tox21):
Several values for one entry are separate records, joined by “and”; a condition that tells them apart may be missing. Equal values may be shown once. Inconclusive results, whose numbers are uncertain, are shown with a selection of clear calls. For some of these results: A potency beside an inconclusive call is a rough fit, not a confirmed value. Activity calls are given as the source filed them. Unless noted, calls follow the shape of the dose curve; as a rule, active = well fitted curve in the direction sought with a large enough effect in the repeat runs; inconclusive = weak or mixed curves; inactive = no such curve, though single readings can be large; an effect the other way counts as inactive or inconclusive.

How the values were obtained:
[1] = qHTS assay to identify small molecule agonists of the TGF-beta/Smad signaling pathway - cell viability counter screen (AID 1346829); also: nearly all actives have a fitted effect of over 45% in size; also: potency is read from the fitted curve at half-maximal effect
Outline: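 After overnight seating at 37 C and 5% CO2, reporter cells got compounds for 5 hr and FRET substrate for 2 hr; cell viability then came from CellTiter-Glo luminescence.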

[2] = biological target: Androgen receptor (Homo sapiens) (UniProt P10275); experiment: qHTS assay to identify small molecule antagonists of the androgen receptor (AR) signaling pathway using the MDA cell line in the presence of 0.5 nM R1881 (AID 1259243); also: potency is read from the fitted curve at half-maximal effect; nearly all actives have a fitted effect of over 50% in size
Chain of UniProt P10275 (P10275 whole entry, looked up): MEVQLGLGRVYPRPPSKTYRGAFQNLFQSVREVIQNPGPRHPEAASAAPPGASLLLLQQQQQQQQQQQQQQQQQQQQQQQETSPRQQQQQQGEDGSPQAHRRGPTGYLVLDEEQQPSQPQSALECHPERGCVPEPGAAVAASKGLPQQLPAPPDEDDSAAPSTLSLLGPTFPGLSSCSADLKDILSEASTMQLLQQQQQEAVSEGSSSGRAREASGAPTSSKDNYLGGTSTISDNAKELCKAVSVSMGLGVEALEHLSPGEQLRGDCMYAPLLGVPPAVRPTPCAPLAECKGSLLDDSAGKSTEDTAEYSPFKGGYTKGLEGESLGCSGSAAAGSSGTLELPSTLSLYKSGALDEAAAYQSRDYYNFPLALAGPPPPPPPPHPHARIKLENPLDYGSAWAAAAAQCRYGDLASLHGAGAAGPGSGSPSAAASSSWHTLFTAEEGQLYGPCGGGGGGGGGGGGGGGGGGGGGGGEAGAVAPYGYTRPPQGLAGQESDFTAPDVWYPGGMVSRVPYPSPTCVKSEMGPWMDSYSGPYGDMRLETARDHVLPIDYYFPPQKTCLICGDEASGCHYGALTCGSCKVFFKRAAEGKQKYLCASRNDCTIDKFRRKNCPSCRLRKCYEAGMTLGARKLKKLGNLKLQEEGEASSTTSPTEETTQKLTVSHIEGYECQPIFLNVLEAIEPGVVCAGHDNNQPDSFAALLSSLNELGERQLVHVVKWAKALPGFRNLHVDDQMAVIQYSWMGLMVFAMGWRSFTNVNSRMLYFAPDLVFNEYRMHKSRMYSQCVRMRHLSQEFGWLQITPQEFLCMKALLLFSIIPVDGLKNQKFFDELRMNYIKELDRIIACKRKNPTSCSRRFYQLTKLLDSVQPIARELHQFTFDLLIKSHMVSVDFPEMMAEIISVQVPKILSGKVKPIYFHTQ
Outline: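 Luminescence from an AR/GR-responsive MMTV-luciferase construct in MDA-kb2 breast carcinoma cells, read 30 min after ONE-Glo, following 16 hr co-treatment with compounds and 0.5 nM R1881.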

[3] = biological target: Acetylcholinesterase (Homo sapiens) (UniProt P22303); experiment: Acetylcholinesterase (AChE) small molecule antagonists: enzyme-based qHTS assay with human liver microsomes (AID 1347399; calls by dose curve; also: potency is read from the fitted curve at half-maximal effect; nearly all actives have a fitted effect of over 60% in size); conditions: Potency: qHTS inhibition
Chain of UniProt P22303 (P22303 whole entry, looked up): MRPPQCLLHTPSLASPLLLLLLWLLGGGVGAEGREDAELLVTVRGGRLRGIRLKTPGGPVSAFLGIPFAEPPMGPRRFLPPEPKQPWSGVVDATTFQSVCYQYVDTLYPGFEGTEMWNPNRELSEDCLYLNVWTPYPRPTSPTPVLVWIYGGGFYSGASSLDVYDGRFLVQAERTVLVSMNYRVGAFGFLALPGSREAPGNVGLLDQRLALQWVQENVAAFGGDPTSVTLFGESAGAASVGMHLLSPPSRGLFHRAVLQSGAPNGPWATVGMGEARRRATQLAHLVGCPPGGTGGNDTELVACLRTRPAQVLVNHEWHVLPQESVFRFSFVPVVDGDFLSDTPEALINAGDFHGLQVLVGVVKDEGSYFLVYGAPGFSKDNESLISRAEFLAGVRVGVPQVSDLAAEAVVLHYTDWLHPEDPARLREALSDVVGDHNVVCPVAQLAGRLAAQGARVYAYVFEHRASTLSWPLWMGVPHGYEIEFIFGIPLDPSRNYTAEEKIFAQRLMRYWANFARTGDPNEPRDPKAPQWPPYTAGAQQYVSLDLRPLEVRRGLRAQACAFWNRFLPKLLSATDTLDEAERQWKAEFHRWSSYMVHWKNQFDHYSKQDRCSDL
Outline: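 Recombinant human AChE (50 mU/mL in the enzyme mix) and human liver microsomes (0.25 mg/mL final) were preincubated with compound and NADPH (0.25 mg/mL final) for 30 min at 37 C. Acetylthiocholine/DTNB was then added; thiocholine was read colorimetrically after 10 min at room temperature.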

[4] = qHTS assay for small molecule disruptors of the mitochondrial membrane potential - cell viability (AID 720634; calls by dose curve; also: potency is read from the fitted curve at half-maximal effect; nearly all actives have a fitted effect of over 20% in size)
Outline: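 Viability of HepG2 cells is scored from ATP content by luminescence; cells are exposed to compound for 1 hr at 37 C and 5% CO2, then dosed with m-MPI dye before the CellTiter-Glo reagent.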

[5] = qHTS assay to identify small molecule antagonists of the glucocorticoid receptor (GR) signaling pathway - cell viability counter screen (AID 720693); conditions: GR-bla HeLa viability, CellTiter-Glo luminescence, 18 h, with 5 nM dexamethasone present; viability change, negative = cytotoxic: at 58.5 µM (top of the series) unless noted; also: potency is read from the fitted curve at half-maximal effect; nearly all actives have a fitted effect of over 55% in size
[6] = A CellTox Green Cytotoxicity Assay to monitor cytotoxicity in HepG2 cells - 16 hour (AID 1224876); also: potency is read from the fitted curve at half-maximal effect; nearly all actives have a fitted effect of over 45% in size
Outline: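 Cytotoxicity was tracked as dead-cell DNA fluorescence in HepG2 cells treated with test compounds at 37 C; each time-point value comes from one kinetic series spanning 0, 8, 16, 24, 32 and 40 h.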

[7] = qHTS assay to test for compound auto fluorescence at 590 nm (red) in HEK293 cells (AID 720679); conditions: red autofluorescence 540/590 nm; also: potency is read from the fitted curve at half-maximal effect
Outline: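 Red autofluorescence, HEK293 cells: 2,000 cells/well; attach 4-5 hr 37C; add 23 nL cpd or DMSO; incubate o/n 37C 5% CO2; read Ex540/Em590; Rose Bengal sodium reference.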

[8] = qHTS assay to identify small molecule phospholipidosis (PLD) inducers (AID 1259344; active = well fitted curve in the direction sought with a large enough effect; inconclusive = small, poorly fitted or top-dose-only effect, or another doubt; inactive = no such curve, though single readings can be large; an effect the other way counts as inactive or inconclusive; also: potency is read from the fitted curve at half-maximal effect)
Outline: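 Phospholipid accumulation was scored by imaging: fixed, Hoechst-counterstained HepG2 cells stained with LipidTOX Red after 24 h compound exposure at 37 C. Read-outs were pit count and pit intensity per well or per cell, with amiodarone and DMSO controls.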

[9] = qHTS assay to identify small molecule agonists of the estrogen related receptor (ERR) signaling pathway from Tox21 library (AID 1224849; calls by dose curve; also: % is scaled to controls: 0 for no effect and ±100 for the full control effect; nearly all actives have a fitted effect of over 15% in size); conditions: ERR reporter cell line, ONE-Glo luciferase, 18 h; at 92.4 µM (top of the series) unless noted
Outline: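 Luciferase activity in ERR pathway reporter cells served as the agonist readout; exposure lasted 18 h at 37 C, with ONE-Glo detection after 30 min at room temperature.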

[10] = biological target: Thyrotropin-releasing hormone receptor (Homo sapiens) (UniProt P34981); experiment: qHTS assay to identify small molecule antagonists of the thyrotropin-releasing hormone receptor (TRHR) signaling pathway (AID 1346877; active = well fitted inhibition curve with a large enough effect in the repeat runs, not every such curve was filed as active; inconclusive = weak or mixed curves; also: potency is read from the fitted curve at half-maximal effect)
Chain of UniProt P34981 (P34981 whole entry, looked up): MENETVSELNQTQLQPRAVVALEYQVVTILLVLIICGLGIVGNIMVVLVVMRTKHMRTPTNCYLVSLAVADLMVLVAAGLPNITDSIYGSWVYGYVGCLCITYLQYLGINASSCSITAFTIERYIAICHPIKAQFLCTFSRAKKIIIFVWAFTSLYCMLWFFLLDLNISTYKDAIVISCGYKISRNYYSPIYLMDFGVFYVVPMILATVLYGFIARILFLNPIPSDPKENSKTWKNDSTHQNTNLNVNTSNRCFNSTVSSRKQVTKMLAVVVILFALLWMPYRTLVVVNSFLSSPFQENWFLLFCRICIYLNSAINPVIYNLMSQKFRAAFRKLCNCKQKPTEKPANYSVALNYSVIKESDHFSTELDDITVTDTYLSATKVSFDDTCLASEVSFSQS
Outline: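 Calcium signal in dye-loaded TRHR/HEK293 cells; compounds added 5 min before TRH (1 nM final); fluorescence monitored 3 min at 1 s steps.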

[11] = biological target: Androgen receptor (Homo sapiens) (UniProt P10275); experiment: qHTS assay to identify small molecule agonists of the androgen receptor (AR) signaling pathway (AID 743036; active = well fitted activation curve with a large enough effect in the signal ratio in the repeat runs, with a control signal flat, not every such curve was filed as active; inconclusive = weak or mixed curves, or effect the other way; inactive = no such curve, though single readings can be large or run the other way; the % refers to the signal ratio; also: % is scaled to controls: 0 for no effect and ±100 for the full control effect); conditions: HEK293 AR-UAS-bla GripTite, beta-lactamase FRET ratio, 16 h; activation: at 62.4 µM (top of the series) unless noted
Outline: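 Following a 4 h settling period, AR-UAS-bla HEK293 cells were dosed with compounds for 16 h at 37C. A 2 h room-temperature incubation with LiveBLAzer B/G FRET substrate preceded the fluorescence measurement.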

[12] = qHTS assay for small molecule agonists of the antioxidant response element (ARE) signaling pathway - cell viability counter screen (AID 743203; calls by dose curve; also: nearly all actives have a fitted effect of over 55% in size; also: potency is read from the fitted curve at half-maximal effect; as to viability change, negative = cytotoxic: % is scaled to controls: 0 for no effect and ±100 for the full control effect); conditions: ARE-bla HepG2 viability, CellTiter-Glo luminescence, 16 h; viability change, negative = cytotoxic: at 73.3 µM (top of the series)
Outline: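 ATP content via CellTiter-Glo luminescence served as the viability measure. Cells: ARE-bla HepG2, 2,000 per well. Exposure: 16 hrs, 37C/5% CO2.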

[13] = qHTS assay to identify small molecule HDAC inhibitors - cell viability counter screen (AID 1259365); also: nearly all actives have a fitted effect of over 50% in size; also: potency is read from the fitted curve at half-maximal effect
Outline: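 Measured quantity is CellTiter-Glo luminescence from wild-type HCT-116 cells after compound incubation of 2hr at 37C, 5% CO2; reagent developed 30min at room temperature.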

[14] = biological target: Androgen receptor (Homo sapiens) (UniProt P10275); experiment: qHTS assay to identify small molecule antagonists of the androgen receptor (AR) signaling pathway (AID 743035; active = well fitted inhibition curve with a large enough effect in the signal ratio in the repeat runs, not every such curve was filed as active; inconclusive = weak or mixed curves, or effect the other way; inactive = no such curve, though single readings can be large or run the other way; the % refers to the signal ratio; also: % is scaled to controls: 0 for no effect and ±100 for the full control effect); conditions: HEK293 AR-UAS-bla, R1881-stimulated, beta-lactamase FRET, 16 h; activity change, negative = inhibition: at 58.5 µM (top of the series) unless noted
Outline: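 Reporter HEK293 cells were exposed to compounds and R1881 overnight (16 h, 37C); beta-lactamase activity was then quantified by FRET fluorescence.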

[15] = qHTS assay to identify small molecule agonists of the estrogen related receptor signaling pathway with the pleiotropic PPARgamma coactivator (PGC) from Tox21 10K library (AID 1224842); also: potency is read from the fitted curve at half-maximal effect; nearly all actives have a fitted effect of over 15% in size
Outline: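 Luminescence from One-Glo (30 min, room temperature) measured after PGC/ERR cells had 18 h at 37 C with pinned compound (23 nL in DMSO). Cells had been seeded at 2,000 per well and pre-incubated 6 h.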

[16] = A CellTox Green Cytotoxicity Assay to monitor cytotoxicity in HEK293 cells - 0 hour (AID 1224869); also: potency is read from the fitted curve at half-maximal effect; nearly all actives have a fitted effect of over 50% in size
Outline: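 Real-time, in one plate: 600 HEK293 cells/well with dead-cell DNA dye, pinned compound after 5 h, 37 C incubation over 40 h; viable cells give no appreciable fluorescence.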

[17] = biological target: Estrogen receptor (Homo sapiens) (UniProt P03372); experiment: qHTS assay to identify small molecule agonists of the estrogen receptor alpha (ER-alpha) signaling pathway in the presence of an antagonist (AID 1259383; calls by dose curve; also: potency is read from the fitted curve at half-maximal effect; nearly all actives have a fitted effect of over 15% in size)
Chain of UniProt P03372 (P03372 whole entry, looked up): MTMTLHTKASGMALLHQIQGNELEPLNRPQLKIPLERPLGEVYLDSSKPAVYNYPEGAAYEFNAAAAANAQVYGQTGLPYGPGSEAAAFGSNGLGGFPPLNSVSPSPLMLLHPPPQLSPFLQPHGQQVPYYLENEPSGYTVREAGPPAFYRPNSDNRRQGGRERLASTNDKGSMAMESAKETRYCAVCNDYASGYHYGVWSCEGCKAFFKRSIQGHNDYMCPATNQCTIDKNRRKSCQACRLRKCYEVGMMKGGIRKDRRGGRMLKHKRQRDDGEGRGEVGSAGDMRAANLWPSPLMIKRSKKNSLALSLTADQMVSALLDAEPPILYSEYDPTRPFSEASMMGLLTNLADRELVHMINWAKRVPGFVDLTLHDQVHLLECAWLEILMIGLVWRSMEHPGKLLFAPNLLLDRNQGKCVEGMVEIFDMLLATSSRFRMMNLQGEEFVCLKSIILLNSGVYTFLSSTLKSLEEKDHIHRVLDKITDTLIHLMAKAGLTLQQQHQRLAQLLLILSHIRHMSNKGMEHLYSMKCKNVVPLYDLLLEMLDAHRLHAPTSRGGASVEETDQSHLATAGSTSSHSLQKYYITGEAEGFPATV
Outline: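 Luminescent ERE-luciferase reporter, VM7Luc4E2 cells (endogenous ER-alpha); 10.0nM ICI-182,780 final; 15-point compound titration; 22hr at 37C; ONE-Glo, 30min RT.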
Tags tell the direction and shape of the fitted curve or compound fluorescence and quenching.

C[C@]12CC[C@H](O)C[C@H]1CC[C@@H]1[C@@H]2C[C@@H](O)[C@]2(C)[C@@H](C3=CC(=O)OC3)CC[C@]12O
Potency [1]: inconclusive: 0.871 µM [cytotoxic, full curve]

NC(=O)c1ccc(N)nc1
Potency [2]: inconclusive: 6.11 µM [inhibitor, full curve]

CCOP(=S)(OCC)SCCS(=O)(=O)CC
Potency [3]: inconclusive: 89.4 µM [falling, single point]

CC1(C(=O)Nc2ccc(O)c(Cl)c2Cl)CCCCC1
Potency [4]: inconclusive: 61.1 µM [cytotoxic] | Potency [5]: inconclusive: 49 µM [cytotoxic, partial curve, poor fit] | Potency [6]: inconclusive: 54.9 µM [activator, partial curve, poor fit]

c1cc[c]([Sb]([c]2ccccc2)[c]2ccccc2)cc1
Potency [2]: inconclusive: 30.6 µM [inhibitor, partial curve, poor fit]

CC[n+]1c(-c2ccccc2)c2cc(N)ccc2c2ccc(N)cc21
Potency [7]: inconclusive: 44.7 µM [fluorescent, partial curve, poor fit] | Potency [8]: inconclusive: 14.1 µM [activator, partial curve, poor fit]

CCOP(=S)(OCC)SCS(=O)(=O)CC
Potency [3]: active: 12.6 µM

CNC(=O)Oc1ccccc1OC(C)C
activity change, positive = activation [9]: inconclusive: 4.29%

CC1=NNC(=O)N(/N=C/c2cccnc2)C1
Potency [10]: inactive

CCN(CC)C(C)C(=O)c1ccccc1 (stereo unspecified)
Potency [11]: inactive | Potency [12]: inactive

O=C1C=CC(=O)c2ccccc21
Potency [13]: active: 48.6 µM | Potency [10]: active: 21.3 µM

O=S(=O)(NS(=O)(=O)C(F)(F)F)C(F)(F)F
Potency [6]: inconclusive: 38.8 µM [activator, partial curve, poor fit]

CC(Cl)(Cl)[N+](=O)[O-]
Potency [14]: inactive

c1ccc(Nc2ccc(Nc3ccccc3)cc2)cc1
Potency [15]: inconclusive: 9.65 µM [activator] | Potency [16]: inconclusive: 21.8 µM [activator, single point] | Potency [13]: inactive

CC1=C(C(=O)Nc2ccccc2)S(=O)(=O)CCO1
Potency [1]: inactive

[O]=[Cd]
activity change, positive = activation [9]: inactive: -14%

COP(=S)(OC)Oc1ccc(SC)c(C)c1
Potency [12]: inconclusive: 68.6 µM [cytotoxic, single point]

COc1cccc2c1cc([N+](=O)[O-])c1c(C(=O)O)cc3c(c12)OCO3
Potency [13]: inconclusive: 61.1 µM [rising, partial curve, poor fit]

O=S(=O)(c1ccc(O)cc1)c1ccc(O)cc1
Potency [17]: inconclusive: 34.6 µM [activator, partial curve] and active: 54.5 µM

CC(C)OC(=O)Nc1cccc(Cl)c1
activity change, positive = activation [9]: inconclusive: 6.15% | Potency [17]: inconclusive: 27.3 µM [activator, partial curve, poor fit]

COS(=O)(=O)OC
Potency [16]: inconclusive: 12.3 µM [activator, single point]

CCOP(=S)(OCC)SCSP(=S)(OCC)OCC
Potency [13]: inactive | Potency [1]: inactive
